Measured values reported in PMC4336329 (PLoS ONE, 2015).
The whole screen tested about 310,000 compounds, of which about 2,200 (0.71%) showed an effect of 50% or more. The effect is printed as a negative number. The list shows a part of the results.

Target: human ether-à-go-go-related gene (hERG) potassium channel (human, UniProt Q12809)
Assay: primary screen, population patch clamp on CHO cells stably expressing hERG

Sequence of human ether-à-go-go-related gene (hERG) potassium channel (Q12809 whole entry, looked up): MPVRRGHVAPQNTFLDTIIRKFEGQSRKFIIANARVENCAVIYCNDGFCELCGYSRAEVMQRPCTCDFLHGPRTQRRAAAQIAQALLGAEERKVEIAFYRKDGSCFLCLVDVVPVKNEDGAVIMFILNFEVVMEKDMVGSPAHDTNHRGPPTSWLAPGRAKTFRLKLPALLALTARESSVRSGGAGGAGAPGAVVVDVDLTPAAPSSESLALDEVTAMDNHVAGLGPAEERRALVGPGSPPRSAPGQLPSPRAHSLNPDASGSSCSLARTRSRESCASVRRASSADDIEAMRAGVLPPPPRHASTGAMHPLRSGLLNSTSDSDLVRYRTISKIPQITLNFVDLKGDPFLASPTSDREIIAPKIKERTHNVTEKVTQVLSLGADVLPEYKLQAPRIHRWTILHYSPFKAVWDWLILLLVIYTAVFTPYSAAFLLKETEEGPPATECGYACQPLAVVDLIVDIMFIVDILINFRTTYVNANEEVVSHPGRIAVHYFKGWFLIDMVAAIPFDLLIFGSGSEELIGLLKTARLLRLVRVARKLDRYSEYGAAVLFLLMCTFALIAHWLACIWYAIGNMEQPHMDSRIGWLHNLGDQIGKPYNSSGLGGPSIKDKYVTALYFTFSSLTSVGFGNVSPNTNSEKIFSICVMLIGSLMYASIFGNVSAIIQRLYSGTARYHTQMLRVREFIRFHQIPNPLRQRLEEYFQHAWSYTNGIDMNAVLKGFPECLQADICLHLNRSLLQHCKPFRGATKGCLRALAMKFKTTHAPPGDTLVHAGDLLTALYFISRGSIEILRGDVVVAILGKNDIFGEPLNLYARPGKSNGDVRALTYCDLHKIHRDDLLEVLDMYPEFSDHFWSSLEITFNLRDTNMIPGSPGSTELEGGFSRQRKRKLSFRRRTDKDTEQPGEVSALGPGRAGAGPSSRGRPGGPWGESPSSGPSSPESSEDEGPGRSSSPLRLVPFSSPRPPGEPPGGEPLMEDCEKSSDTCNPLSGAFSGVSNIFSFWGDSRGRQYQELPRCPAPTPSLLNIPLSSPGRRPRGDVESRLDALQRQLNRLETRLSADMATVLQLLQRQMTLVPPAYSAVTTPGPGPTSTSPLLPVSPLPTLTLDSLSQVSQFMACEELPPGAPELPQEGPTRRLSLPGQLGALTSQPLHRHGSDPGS

Structure (SMILES) | hERG current change (%, negative = inhibition) at 1uM [%]
O=C(CCNC(=O)C1CCN(S(=O)(=O)c2ccccc2)CC1)NCc1ccc(Cl)cc1 | 8.81
COc1ccc(C(CNC(=O)c2cccc(Br)c2)N2CCCC2)cc1 (centres unmarked) | 4.27
CSc1nc(-c2ccccc2)c(-c2ccccc2)[nH]1 | 8.29
Cc1cccc(C(=O)NNC2=CC(=O)CC(C)(C)C2)c1O | 10.4
O=C1CCCc2ccccc2N1Cc1ccccc1 | 8.06
Cc1cccc(OCC(=O)N/N=C\c2cc3c(cc2[N+](=O)[O-])OCO3)c1C | 1.2
COC(C)(C)[C@@H](O)COc1c2ccoc2cc2oc(=O)ccc12 | 3.6
CCCn1c(SCCN2CCOCC2)nc2c1c(=O)n(C)c(=O)n2C | 13.3
CN(C(=O)C1CCN(c2ncnc3c2nc2n3CCCCC2)CC1)C1CCCCC1 | 2.14
CC(C)(C)NC(=O)C(=O)N/N=C/c1ccc(Br)cc1 | 8.9
O=Cc1cn(-c2ccc(F)cc2)c2ccccc12 | 9.86
OC1CCN(C(=S)Nc2ccc(Oc3ccccc3)cc2)CC1 | 6.46
CCOC(=O)C1(c2csc(N)n2)COC(=O)C1 (centres unmarked) | 7.3
COc1ccc(OC)c(NC(=O)Nc2ccc(Cl)cc2)c1 | 8.82
CN(Cc1cccnc1)C(=O)CNC(=O)COc1ccccc1 | 14
Cc1ccc(NC(=S)NC(NC(=O)c2ccco2)C(Cl)(Cl)Cl)cc1 (centres unmarked) | 2.23
O=C1CC[C@H](OCc2ccccc2)CCN1[C@H](CSc1ccccc1)Cc1ccccc1 | -10.6
COC(=O)/C=C/c1ccc(-n2cncn2)cc1 | 12
CCC(=O)NCCn1c(C)cc2ccccc21 | 8.84
COc1ccc(S(=O)(=O)N2CCN(C(=O)C3CC3)CC2)cc1 | 13.7
Cn1c(=O)c2c(nc(CN3CCOCC3)n2CCCO)n(C)c1=O | 15.2
Cc1cc(NC(=O)COC(=O)c2ccco2)no1 | -3.74
CC(C)c1csc(CN2CCC(CO)(Cc3ccccc3)CC2)n1 | 15.7
Cc1ccc(CN(c2ccc(C(=O)NCc3ccc4c(c3)OCO4)cc2)S(C)(=O)=O)cc1 | 8.09
O=C(O)COc1cccc(/C=C2/SC(=S)N(Cc3ccccc3)C2=O)c1 | 4.86
Cc1ccc(S(=O)(=O)N2CCCC2)cc1C(=O)NCc1ccccc1CN1CCCC1 | -7.98
